Test results: PubChem BioAssay AID624417 (National Center for Advancing Translational Sciences (NCATS), 2012)
Screen size: about 410,000 compounds; about 6,400 (1.6%) were called active. Inconclusive means that the source gave no clear call. Such entries were picked first, then a sample of the others. Calls follow the shape of the dose curve; as a rule, active = well fitted inhibition curve with a large enough effect; inconclusive = small, poorly fitted or top-dose-only effect; inactive = no such curve, though single readings can be large or run the other way. Potencies of inconclusive entries are left out as doubtful fits.

Molecular target: Glucagon-like peptide 1 receptor (Homo sapiens) (UniProt P43220)
Chain of UniProt P43220 (P43220 whole entry, looked up): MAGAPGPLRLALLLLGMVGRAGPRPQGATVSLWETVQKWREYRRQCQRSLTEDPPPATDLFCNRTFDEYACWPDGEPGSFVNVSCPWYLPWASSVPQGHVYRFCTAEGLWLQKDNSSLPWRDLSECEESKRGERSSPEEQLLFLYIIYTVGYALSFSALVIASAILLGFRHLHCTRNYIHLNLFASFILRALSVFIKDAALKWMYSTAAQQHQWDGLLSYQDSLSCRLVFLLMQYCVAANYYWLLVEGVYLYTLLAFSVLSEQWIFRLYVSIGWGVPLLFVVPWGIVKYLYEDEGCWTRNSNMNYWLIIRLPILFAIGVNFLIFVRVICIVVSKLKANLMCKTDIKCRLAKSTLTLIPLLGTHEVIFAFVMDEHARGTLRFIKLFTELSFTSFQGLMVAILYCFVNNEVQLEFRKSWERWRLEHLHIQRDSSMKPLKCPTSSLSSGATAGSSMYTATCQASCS
Test: qHTS of GLP-1 Receptor Inverse Agonists (Inhibition Mode); also: nearly all actives have a fitted effect of over 55% in size
Conditions: HEK293 GLP-1R CRE-luciferase, luminescence, 24 h, GLP-1R form is constitutively active; activity change, negative = inhibition: at 38.3 µM (top of the series) unless noted
Summary of the method: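 Cells are plated, allowed 12 hours at 37 deg C, then treated with compounds for 24 hr before luciferase detection reagent is added and luminescence is read after 12 min at room temperature. The HEK293 line carries constitutively active GLP-1R with a cAMP-responsive reporter.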
% is scaled to controls: 0 for no effect and ±100 for the full control effect; potency is read from the fitted curve at half-maximal effect; tags tell the direction and shape of the fitted curve.

Compound | Potency | activity change, negative = inhibition
CCC(C(=O)OCC(=O)Nc1ccc(C(=O)Nc2ccc(OC)cc2)cc1)c1ccccc1 (stereo not drawn) | inconclusive [inhibitor, partial curve, poor fit] | 
O=C1c2[nH]nc(-c3ccccc3)c2C(c2ccccc2)N1c1cccc(C(F)(F)F)c1 (stereo not drawn) | inconclusive [inhibitor, partial curve, poor fit] | 
COc1c(Cl)cc(C(=O)Nc2ccccc2-c2ccccc2)cc1Cl | active: 10 µM | 
O=C(Nc1cccn(Cc2c(F)cccc2Cl)c1=O)NC1CCCCC1 | inconclusive [inhibitor, partial curve, poor fit] | 
COc1ccc(-c2noc(N3CCC(C(=O)N4CCN(c5ccccn5)CC4)CC3)n2)cc1 | inconclusive [inhibitor, partial curve, poor fit] | 
O=C(c1cc([N+](=O)[O-])ccc1N1CCCCC1)N1CCCC1 |  | inactive: 11.9%
CC1=Nc2ccccc2/C1=C\c1sc(Nc2ccc(C)cc2)nc1O | inconclusive [inhibitor, full curve, poor fit] | 
Cc1cc2nc(-c3cccc(Br)c3)c(Cc3ccsc3)n2c(C)c1Br | inconclusive [inhibitor, single point] | 
CC1(C)Cc2cccc(C(=O)Nc3ccc(Cl)cc3)c2O1 | active: 11.2 µM | 
COc1ccc(N=Cc2c(OC)ccc3ccccc23)cc1 | inconclusive [inhibitor, partial curve] | 
Cc1cccc(C)c1NC(=O)CN(Cc1ccccc1)Cc1ccccc1 | inconclusive [inhibitor, partial curve, poor fit] | 
COc1ccc(/C=N/Nc2ccccn2)c(OC)c1OC |  | inactive: 8.53%
O=S(=O)(NCc1cccs1)c1cccc(S(=O)(=O)N2CCCCC2)c1 | inconclusive [inhibitor, partial curve, poor fit] | 
CCNS(=O)(=O)c1ccc(CCC(=O)N2CCN(c3cc(Cl)ccc3C)CC2)cc1 | inconclusive [inhibitor, partial curve, poor fit] | 
COc1cccc(OCc2nc3ccccc3n2Cc2ccccc2C)c1 | inconclusive [inhibitor, partial curve, poor fit] | 
COc1ccc(S(=O)(=O)N2CCCC2CNC(=O)C(=O)Nc2ccc(C)cc2)cc1 (stereo not drawn) | inconclusive [inhibitor, single point] | 
Cc1ccc(C#CC[N+](C)(C)CC#Cc2ccccc2)cc1 |  | inactive: -11.3% [at 0.307 µM]
Nc1ccc(-c2cc3ccccc3oc2=O)cc1 | inconclusive [inhibitor, partial curve, poor fit] | 
Clc1cccc(-c2nnc(SC/C=C/c3ccccc3)n2Cc2ccco2)c1 | inconclusive [inhibitor, full curve, poor fit] | 
COc1ccc(NC(=O)CCCSc2nc(-c3ccco3)cc(C(F)(F)F)n2)c(OC)c1 | inconclusive [inhibitor, partial curve, poor fit] | 
COc1cc2cc(CN(CCc3cccc(C)c3)C(=S)NCCCN(C)C)c(=O)[nH]c2cc1OC | inconclusive [inhibitor, single point] | 

Compound | Potency | activity change, negative = inhibition
COc1ccccc1-c1nc2c(c(SCC(=O)N3CCCCC3)n1)Cc1c(CO)cnc(C)c1O2 | inconclusive [inhibitor, single point] | 
CSc1nc2ccc(Br)cc2[nH]1 |  | inactive: 15.9%
COc1ccccc1CNC(=O)C1CC2Cn3c(nc4cc(Cl)c(Cl)cc43)C2N1C (stereo not drawn) | inconclusive [inhibitor, single point] | 
CCc1ccc(N2CC(C(=O)NCC(C)(C)N3CCOCC3)CC2=O)cc1 (stereo not drawn) | inconclusive [inhibitor, single point] | 
CCN1CCN(c2ccc(NC(=O)c3cccc(OCc4ccccc4)c3)cc2)CC1 | inconclusive [inhibitor, full curve, poor fit] | 
C=CCOc1ccc(C=Nc2ccc(OC)cc2)c(O)c1 | inconclusive [inhibitor, single point] | 
O=[N+]([O-])c1cc(Cl)ccc1N1CCN(c2ccccc2O)CC1 | inconclusive [inhibitor, single point] | 
CCc1cc(CNC(=O)c2ccc(OC3CCN(CCc4ccccc4)CC3)cc2)on1 | inconclusive [inhibitor, single point] | 
COc1ccc(Cl)cc1-c1cc(C(=O)Nc2ccc(Br)cc2)[nH]n1 | inconclusive [inhibitor, single point] | 
Cc1cc(C)c(NS(=O)(=O)c2ccc(-c3cnc(C4CC4)o3)cc2)c(C)c1 | inconclusive [inhibitor, full curve, poor fit] | 
CCOC(=O)c1cc(C#N)c(N2CCN(C)CC2)nc1-c1ccccc1 | inconclusive [inhibitor, partial curve] | 
O=C(CN1c2ccccc2S(=O)(=O)c2ccccc21)NCc1ccc(F)cc1 | inconclusive [inhibitor, single point] | 
CC(C)N(CCc1ccncc1)C(=S)Nc1ccc(F)c(Cl)c1 | inconclusive [inhibitor, partial curve, poor fit] | 
COc1cc(CC(=O)OCC(=O)NCCc2ccc(S(N)(=O)=O)cc2)cc(OC)c1OC |  | inactive: 6.54%
CN(Cc1ccccc1)Cc1c[nH]c2ccccc12 | inconclusive [inhibitor, partial curve, poor fit] | 
CCCNC(=O)c1nnsc1Sc1ccc(Cl)cc1 | inconclusive [inhibitor, full curve, poor fit] | 
COc1ccc(Cl)cc1NC(=O)CN(C)S(=O)(=O)c1cccs1 | inconclusive [inhibitor, single point] | 
CCN1CCN(C2=C(NS(=O)(=O)c3ccc(NC(C)=O)cc3)C(=O)c3ccccc3C2=O)CC1 |  | inactive: -29.6%
Cc1cc(C)c(OCC(=O)NCC(C)(C)N2CCOCC2)c(C)c1 | inconclusive [inhibitor, single point] | 
CC12CCC(C(=O)NNc3ccc([N+](=O)[O-])cc3)(OC1=O)C2(C)C (stereo not drawn) | inconclusive [inhibitor, full curve, poor fit] | 
CCc1ccc(NC(=O)N(Cc2ccco2)C(C)c2cccs2)cc1 (stereo not drawn) | inconclusive [inhibitor, single point] | 

Compound | Potency | activity change, negative = inhibition
O=C(Cc1ccc(Cl)cc1)Nc1nnc2n1CCS2 |  | inactive: 1.07%
COc1cccc(C(O)c2nc(-c3ccc(C)c(C)c3)cs2)c1 (stereo not drawn) | inconclusive [inhibitor, partial curve, poor fit] | 
CCN(CC)CCCN(Cc1cc2cc3c(cc2[nH]c1=O)OCCO3)C(=O)Nc1ccc(F)cc1 |  | inactive: -23.7%
O=C(N/N=C/c1ccc(O)cc1)c1cccc(N/N=C/c2ccc(O)cc2)c1 | inconclusive [inhibitor, partial curve] | 
O=C(COC(=O)c1ccc(Cl)nc1)Nc1nnc(-c2ccccc2)o1 |  | inactive: -1.04%
COc1ccc(C(=O)Nc2ccnn2C2CCN(Cc3ccc4nonc4c3)CC2)cc1 | inconclusive [inhibitor, single point] | 
COc1ccc(C(=O)Nc2nc3c(s2)CCCC3)cc1S(=O)(=O)N1CCCc2ccccc21 | inconclusive [inhibitor, single point] | 
O=C1NC[C@H](CCCCN2C[C@H](Cc3ccc(O)cc3)N(CC3CCCCC3)C(=O)C2=O)N(CC2CCCCC2)C1=O |  | inactive: 25.7%
CCN(CC)CCN(C(=O)c1ccc(S(=O)(=O)N(C)C2CCCCC2)cc1)c1nc2c(C)cccc2s1 | inconclusive [inhibitor, single point] | 
Fc1cccc(C2CCCCN2Cc2nc(C3CC3)no2)c1 (stereo not drawn) | inconclusive [inhibitor, partial curve, poor fit] | 
Cn1nc(CC(=O)N2CCN(c3ccccc3)CC2)c2ccccc2c1=O |  | inactive: 0.51%
Cc1cccc(NC(=O)CNC(=O)c2cc(C3CC3)nn2-c2ccccc2)c1C | inconclusive [inhibitor, partial curve, poor fit] | 
Cc1nc2c(-c3ccccc3)c(C)[nH]n2c(=O)c1Cc1ccccc1 | inconclusive [inhibitor, single point] | 
Cc1cccc(OCC(=O)Nc2ccccc2N2CCN(C)CC2)c1 | inconclusive [inhibitor, partial curve, poor fit] | 
CCCSc1nnc(Sc2nnnn2-c2ccccc2)s1 | inconclusive [inhibitor, full curve, poor fit] | 
COCCN(C(=O)C(C)C)c1nnc(-c2cccc(C)c2)s1 | inconclusive [inhibitor, single point] | 
COc1ccc(CCNC(=O)c2cc(S(=O)(=O)N(C)c3ccccc3)ccc2Cl)cc1 | inconclusive [inhibitor, single point] | 
Cc1c(C(=O)N(Cc2nnc(-c3ccccc3Cl)o2)C2CC2)oc2ccccc12 | inconclusive [inhibitor, partial curve] | 
O=C(Nc1ccc(N2CCOCC2)cc1)C1CCN(S(=O)(=O)c2ccccc2F)CC1 | inconclusive [inhibitor, partial curve, poor fit] | 
Cc1ccc(SCC(=O)NC2CCCCCC2)cc1 | inconclusive [inhibitor, single point] | 
Cc1cccc(/C=N/NC(=O)c2ccc(F)cc2)n1 | inconclusive [inhibitor, single point] | 
